Experimental data taken from a compilation of properties of binary mixtures (doi:10.1021/je300316a).
The densities may have been worked out from excess volumes.

Experiment: xn = mol fraction of the nth substance listed
Settings: 101 kPa

CCCCCC[n+]1ccn(C)c1.F[B-](F)(F)F + CC#N
mass density [kg/m3]
Settings | x2 = 0 | x2 = 0.0956 | x2 = 0.1917 | x2 = 0.3374 | x2 = 0.4303 | x2 = 0.5384 | x2 = 0.5934 | x2 = 0.7052 | x2 = 0.7951 | x2 = 0.896
293.15 K | 1148.8 | 1141.5 | 1131.7 | 1113.7 | 1099.3 | 1077.6 | 1063.6 | – | 985.5 | 912.5
298.15 K | 1145.3 | 1138 | – | 1110 | – | – | 1059.6 | – | 981.2 | 907.8
303.15 K | 1141.9 | 1134.5 | 1124.6 | 1106.4 | 1091.9 | 1069.9 | 1055.7 | 1019.6 | 976.9 | 903.1
313.15 K | 1135 | – | 1117.5 | 1099.1 | 1084.5 | 1062.3 | – | 1011.4 | – | 893.7
323.15 K | 1128.2 | 1120.7 | 1110.5 | 1091.9 | 1077.1 | 1054.6 | 1040.1 | 1003.3 | 959.6 | 884.2
333.15 K | 1121.5 | 1113.8 | 1103.5 | 1084.7 | 1069.8 | – | 1032.4 | 995.1 | 950.9 | 874.7
343.15 K | 1114.8 | 1107 | 1096.6 | 1077.6 | – | 1039.5 | – | 987 | 942.3 | 865.2

CC[n+]1ccn(C)c1.F[B-](F)(F)F + CC#N
mass density [kg/m3]
Settings | x2 = 0 | x2 = 0.0797 | x2 = 0.1787 | x2 = 0.2803 | x2 = 0.3682 | x2 = 0.4903 | x2 = 0.5753 | x2 = 0.7116 | x2 = 0.8301
293.15 K | 1290.6 | – | – | 1236.6 | 1213.4 | 1176.5 | – | 1073.4 | 985
298.15 K | 1286.8 | 1273.2 | 1254.4 | 1232.6 | 1209.4 | 1172.4 | – | 1068.9 | –
303.15 K | – | 1269.3 | 1250.5 | – | 1205.4 | 1168.2 | 1134.8 | 1064.5 | 975.6
313.15 K | – | 1261.7 | – | 1220.8 | 1197.4 | 1160.1 | 1126.5 | – | 966.3
323.15 K | 1268 | 1254.2 | 1235.2 | 1213.1 | 1189.5 | 1152 | – | – | 956.9
333.15 K | 1260.5 | 1246.7 | 1227.6 | 1205.4 | 1181.7 | 1144 | 1110 | 1038.3 | 947.5

CC#N + CCCCCC[n+]1ccn(C)c1.F[B-](F)(F)F
x1 = 1
Settings | mass density [kg/m3]
293.15 K | 782
298.15 K | 776.6
303.15 K | 771.1
313.15 K | 760.2
323.15 K | 749.1
333.15 K | 737.9
343.15 K | 726.4

CS(C)=O + CCCCCC[n+]1ccn(C)c1.F[B-](F)(F)F
x1 = 1
Settings | mass density [kg/m3]
293.15 K | 1100.8
298.15 K | 1095.7
303.15 K | 1090.7
313.15 K | 1080.7
323.15 K | 1070.7
333.15 K | 1060.6
343.15 K | 1050.6
353.15 K | 1040.5

CC#N + CC[n+]1ccn(C)c1.F[B-](F)(F)F
x1 = 1
Settings | mass density [kg/m3]
293.15 K | 782
303.15 K | 771.1
323.15 K | 749.1
333.15 K | 737.9

CS(C)=O + CC[n+]1ccn(C)c1.F[B-](F)(F)F
x1 = 1
Settings | mass density [kg/m3]
298.15 K | 1095.7
303.15 K | 1090.7
333.15 K | 1060.6
343.15 K | 1050.6
353.15 K | 1040.5

CCCCCC[n+]1ccn(C)c1.F[B-](F)(F)F + CS(C)=O
mass density [kg/m3]
Settings | 293.15 K | 298.15 K | 303.15 K | 313.15 K | 323.15 K | 333.15 K | 343.15 K | 353.15 K
x2 = 0 | 1148.8 | 1145.3 | 1141.9 | 1135 | – | 1121.5 | 1114.8 | 1108.1
x2 = 0.1024 | – | 1143.5 | 1140.1 | 1133.2 | 1126.3 | 1119.5 | – | 1105.9
x2 = 0.2117 | 1145.2 | 1141.6 | 1138.1 | 1131 | 1124 | – | 1110 | –
x2 = 0.2483 | 1144.5 | 1141 | 1137.4 | 1130.3 | 1123.2 | 1116.1 | 1109.1 | 1102.1
x2 = 0.3298 | 1143 | – | 1135.7 | 1128.5 | 1121.3 | 1114.1 | 1107 | 1099.9
x2 = 0.4286 | 1140.8 | – | 1133.4 | – | – | 1111.3 | 1104 | 1096.7
x2 = 0.4964 | 1138.9 | 1135.1 | 1131.4 | 1123.8 | – | 1108.9 | 1101.5 | 1094.1
x2 = 0.6143 | 1134.6 | 1130.7 | 1126.8 | 1119 | 1111.2 | 1103.5 | 1095.8 | 1088.2
x2 = 0.7169 | 1129.6 | – | 1121.5 | 1113.4 | 1105.3 | 1097.3 | 1089.3 | –
x2 = 0.7505 | 1127.5 | – | 1119.3 | 1111 | 1102.9 | 1094.7 | 1086.5 | 1078.4
x2 = 0.884 | 1116.6 | 1112.2 | – | – | – | 1081 | 1072.2 | 1063.3

CC[n+]1ccn(C)c1.F[B-](F)(F)F + CS(C)=O
mass density [kg/m3]
Settings | x2 = 0 | x2 = 0.0872 | x2 = 0.2021 | x2 = 0.2931 | x2 = 0.4098 | x2 = 0.4781 | x2 = 0.5718 | x2 = 0.6689 | x2 = 0.7866 | x2 = 0.8959
293.15 K | 1290.6 | 1283 | – | 1263.1 | 1249.2 | – | – | 1205.9 | 1176.8 | –
298.15 K | 1286.8 | 1279.1 | – | – | 1245.2 | 1235.7 | 1220.7 | – | 1172.4 | 1137.4
303.15 K | 1283 | – | – | – | 1241.1 | 1231.7 | 1216.5 | 1197.4 | 1167.9 | 1132.7
313.15 K | – | 1267.7 | 1257 | 1247.3 | 1233.1 | 1223.6 | 1208.3 | 1188.9 | 1159.1 | –
323.15 K | 1268 | – | 1249.3 | 1239.5 | – | 1215.5 | 1200.1 | – | 1150.4 | 1114.2
333.15 K | 1260.5 | 1252.6 | 1241.7 | 1231.8 | 1217.4 | – | 1191.9 | 1172.1 | 1141.6 | 1104.9
343.15 K | 1253.2 | 1245.2 | 1234.2 | 1224.2 | – | 1199.7 | – | – | 1132.9 | 1095.7
353.15 K | 1245.9 | 1237.8 | 1226.7 | 1216.6 | 1201.8 | 1191.8 | 1175.8 | – | 1124.2 | 1086.4
